Reference: PubChem BioAssay AID485297 (National Center for Advancing Translational Sciences (NCATS), 2010)
The whole screen tested about 320,000 compounds, of which about 9,100 (2.8%) were called active. Inconclusive means that the source gave no clear call. Such entries were picked first, then a sample of the others. The call rests on the fitted dose curve; in most records, active means well fitted activation curve with a large enough effect; inconclusive means small, poorly fitted or top-dose-only effect; inactive means no such curve, though single readings can be large or run the other way. No potency is given beside an inconclusive call; the fits are too rough.

assay: qHTS Assay for Rab9 Promoter Activators; conditions: Huh7 Rab9 promoter-luciferase reporter, luminescence, 24 h; series mostly up to 9.22 µM; further: nearly all actives have a fitted effect of over 60% in size
Outline: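 Luminescence from Amplite-detected luciferase (10 minutes, ambient) reports Rab9 promoter activation. Before that, stable Rab9-luciferase Huh7 cells (1500/well, reduced-serum OP-MEM I plus 10% FBS) were exposed to compound for 24 hours at 37C.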
Potency means the concentration at half of the fitted maximal effect; tags describe the fitted curve by direction and shape.

Structure (SMILES)	Potency
Cc1ccc(C)c(Nc2nc(N)c3ccccc3n2)c1	active: 2.51 µM
CC(C)c1ccc2nc(N)sc2c1	active: 2 µM
COc1cccc(/C=C/C(=O)c2ccc(C)c([N+](=O)[O-])c2)c1	inactive
CC(=O)c1cccc(N=Cc2c(O)ccc3ccccc23)c1	inactive
CN(C)/C=C(\C#N)C(=O)Nc1ccccc1	inconclusive [activator, partial curve]
Cc1nc2cc(NC(=O)c3ccc([N+](=O)[O-])s3)ccc2s1	inconclusive [activator, full curve, poor fit]
NS(=O)(=O)c1ccc(CNC(=O)CC23CC4CC(CC(C4)C2)C3)cc1	inconclusive [activator, single point]
CCCn1nnc(NC(=O)c2ccc(-c3cccc(Cl)c3)o2)n1	inconclusive [activator, single point]
CCc1ccccc1Nc1nn2c(=O)c3ccc(C(=O)NCCCOC(C)C)cc3nc2s1	inactive
Cc1ccc(-c2nc(C#N)c(NCc3ccco3)o2)cc1	inconclusive [activator, single point]
COc1ccc(CC(=O)OC(C)C(=O)NC2CCCCC2C)cc1 (stereo not given)	inactive
COc1ccc(NC(=O)C2Cc3ccccc3C(=O)O2)cc1 (stereo not given)	inconclusive [activator, single point]
Cc1nn(CC(=O)c2ccccc2)c(=O)c2nn(-c3ccccc3F)c(C)c12	inactive
CC1Cc2ccccc2N1S(=O)(=O)c1cccc(C(=O)Nc2cccnc2)c1 (stereo not given)	inconclusive [activator, single point]
COC(=O)c1ccc(NC(=O)CSCC(=O)OCC(=O)c2ccc(Br)cc2)cc1	inactive
COc1ccccc1C(=O)NC(=O)COC(=O)CN1C(=O)NC(C)(C)C1=O	inactive
Cc1ccc2c(c1)c(/C=C/c1cc[n+](C)cc1)c(C)n2C	inactive
c1ccc(CCNc2nc3ccccc3s2)cc1	inconclusive [activator, single point]
Cc1cc(C)nc(NC(=O)CCCC(=O)O)c1	inactive
O=C(c1ccccc1)c1ccc2nc(-c3ccco3)c(-c3ccco3)nc2c1	inconclusive [activator, partial curve]
Cc1cc(C)n2nc(SCC3COc4ccccc4O3)nc2n1 (stereo not given)	inconclusive [activator, single point]
Cc1ccc(-c2ccc(SCC(=O)N3CCCc4ccccc43)nn2)cc1	inactive
Cc1ccc(SCCC(=O)N(C)CC(=O)Nc2c(C)cccc2C)cc1	inactive
COC(=O)/C=C1\SC(=NC(=O)c2cccc(Cl)c2)NC1=O	inconclusive [activator, single point]
CCOC(=O)c1sc(NC(=S)NC(=O)CC(C)C)cc1C	inconclusive [activator, full curve]

Structure (SMILES)	Potency
C/C(=N\NC(=O)c1c(C)nc2ccccn12)c1ccco1	active: 2.51 µM
CCCCOc1ccc(CNC(=S)N/N=C/c2ccc(OC)c(OC)c2)cc1	inactive
O=C(O)c1cc(N/N=C/c2ccc(-c3ccc(F)cc3)o2)ccc1Cl	inconclusive [activator, partial curve]
O=C(Nc1cc([N+](=O)[O-])ccc1O)c1cccc([N+](=O)[O-])c1	inconclusive [activator, single point]
CCn1c(-c2ccc(N(C)C)cc2)nc2ccccc21	inconclusive [activator, partial curve]
CCOC(=O)c1cc2c(=O)c3cc(C)ccc3oc2nc1C	active: 3.16 µM
O=C(NC1CCCCCCC1)c1c(O)c2ccccc2[nH]c1=O	inconclusive [activator, full curve]
Cc1csc(NC(=O)c2cc3c(s2)CCC3)n1	inconclusive [activator, partial curve, poor fit]
O=C(c1cc(COc2ccc(F)c(F)c2)on1)N1CCSCC1	inconclusive [activator, single point]
CCOc1ccc(NC(=O)c2ccccn2)cc1	active: 0.126 µM
Cc1sc(NC(=O)c2ccco2)nc1-c1ccc2c(c1)CC(C)N2C(=O)C1CC1 (stereo not given)	inactive
Cn1nccc1C(=O)NCCN1C(=O)OC(C)(C)C1(C)O (stereo not given)	inconclusive [activator, single point]
C/C(=N\NC(=O)c1c(Cl)c(C)nn1C)c1cccc(NC(=O)c2cccc(F)c2)c1	inactive
CC(=O)c1cccc(NC(=O)C(=O)c2cn(CC(=O)N3CCCCC3)c3ccccc23)c1	inactive
O=C(CSc1nnnn1C1CCCC1)c1ccc2c(c1)OCCO2	active: 0.631 µM
CC(C)C(=O)NC(=S)Nc1sc2c(c1C(N)=O)CCCC2	inconclusive [activator, single point]
COc1ccc(OCc2cc(C(=O)N3CCCC(O)C3)no2)c2ccccc12 (stereo not given)	inconclusive [activator, partial curve]
Cc1ncoc1C(=O)Nc1ccc(Oc2ccccc2)cc1	inconclusive [activator, partial curve, poor fit]
CCOc1ccc2nc(NC(=O)C(CCSC)NS(=O)(=O)c3cccs3)sc2c1 (stereo not given)	inconclusive [activator, single point]
C/C(=N/NC(=O)C1CCCN1C(=O)c1ccc([N+](=O)[O-])cc1)c1ccc(Br)cc1 (stereo not given)	inactive
S=C(c1ccc(OCc2ccccc2)cc1)N1CCCC1	inconclusive [activator, partial curve]
COc1ccc(OCc2ccc(/C=N\NC(=O)c3sccc3C)o2)cc1	inconclusive [activator, single point]
CCc1cc(OCCOCCN(C)C)ccc1Cl	inactive
Nc1nnc(/C=C/c2ccccc2)s1	inconclusive [activator, partial curve]
Cc1ccc(CCNC(=O)C2CCN(S(=O)(=O)c3ccc4c(c3)NC(=O)CO4)CC2)cc1	inconclusive [activator, single point]
